From PMC4336329 (PLoS ONE, 2015)
Out of some 310,000 compounds screened, about 14,000 (4.5%) showed an effect of 50% or more. The effect is printed as a negative number. Some of the results follow.

Biological target: human ether-à-go-go-related gene (hERG) potassium channel (human, UniProt Q12809)
Assay: primary screen, population patch clamp on CHO cells stably expressing hERG
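Further: peak tail current of the secondary pulse compared with the same well before compound.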

Chain of human ether-à-go-go-related gene (hERG) potassium channel (Q12809 whole entry, looked up): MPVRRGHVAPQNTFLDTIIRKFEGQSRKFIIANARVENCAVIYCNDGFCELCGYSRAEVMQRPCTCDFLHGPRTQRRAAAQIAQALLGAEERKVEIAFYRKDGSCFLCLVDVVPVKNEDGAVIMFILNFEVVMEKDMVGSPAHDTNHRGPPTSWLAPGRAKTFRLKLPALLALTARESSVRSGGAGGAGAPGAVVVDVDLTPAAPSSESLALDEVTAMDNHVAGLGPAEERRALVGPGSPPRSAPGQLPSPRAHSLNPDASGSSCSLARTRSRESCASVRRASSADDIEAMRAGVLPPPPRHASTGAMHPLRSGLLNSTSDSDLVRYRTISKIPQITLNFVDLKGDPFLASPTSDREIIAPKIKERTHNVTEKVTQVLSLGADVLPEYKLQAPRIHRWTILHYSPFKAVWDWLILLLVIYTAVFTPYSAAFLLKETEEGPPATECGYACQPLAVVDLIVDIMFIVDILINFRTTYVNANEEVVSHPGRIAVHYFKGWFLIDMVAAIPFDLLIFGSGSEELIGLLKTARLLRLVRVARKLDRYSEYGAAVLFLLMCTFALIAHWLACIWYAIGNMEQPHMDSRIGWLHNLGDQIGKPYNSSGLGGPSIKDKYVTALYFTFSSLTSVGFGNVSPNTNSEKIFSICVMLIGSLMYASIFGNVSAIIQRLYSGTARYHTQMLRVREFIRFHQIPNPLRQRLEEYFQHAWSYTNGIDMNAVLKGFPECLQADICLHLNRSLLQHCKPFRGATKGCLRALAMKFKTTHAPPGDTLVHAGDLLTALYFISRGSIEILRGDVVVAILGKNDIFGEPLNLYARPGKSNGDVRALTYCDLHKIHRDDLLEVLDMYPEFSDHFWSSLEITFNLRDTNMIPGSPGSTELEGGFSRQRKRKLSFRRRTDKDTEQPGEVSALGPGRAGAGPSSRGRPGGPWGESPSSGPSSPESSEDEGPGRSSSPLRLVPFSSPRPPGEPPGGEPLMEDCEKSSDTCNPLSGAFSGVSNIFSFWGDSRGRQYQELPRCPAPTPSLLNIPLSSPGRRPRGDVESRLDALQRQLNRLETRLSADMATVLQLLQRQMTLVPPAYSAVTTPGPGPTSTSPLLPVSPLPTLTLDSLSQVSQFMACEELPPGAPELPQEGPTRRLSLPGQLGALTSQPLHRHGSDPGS

| Structure (SMILES) | hERG current change (%, negative = inhibition) at 10uM [%] |
| --- | --- |
| COc1ccccc1C(=O)NCC(=O)OC(C)C(=O)NC(=O)NC1CCCCC1 (stereo not drawn) | 4.94 |
| NS(=O)(=O)c1ccc(CNC(=O)c2cc(-c3ccccc3)nc3ccccc23)cc1 | 4.43 |
| COc1ccc(C2=CC3=CC(=O)C(C)(O)C(=O)C3=CO2)cc1 (stereo not drawn) | 8.37 |
| CC(=O)Nc1ccc(C(=O)CN2CCN(c3ccccc3)CC2)cc1 | 1.39 |
| COc1ccc(NS(=O)(=O)c2ccc3c(c2)CCCN3C(C)=O)cc1 | -0.512 |
| Cc1ccc(S(=O)(=O)N2CCN(C(=O)COC(=O)/C=C/c3ccccc3[N+](=O)[O-])CC2)c(C)c1 | 4.26 |
| Cc1ccsc1C(=O)OCc1nc2ccsc2c(=O)[nH]1 | -2.66 |
| Cc1cc(C)c(NS(=O)(=O)c2ccc(NC(=O)c3cccs3)cc2)c(C)c1 | 17.4 |
| CCCC(c1nnnn1Cc1cccs1)N1CCN(c2nc3ccccc3s2)CC1 (stereo not drawn) | -22.4 |
| Cc1cc(OC(C)C(=O)Nc2ccc(S(=O)(=O)Nc3onc(C)c3C)cc2)cc(C)c1Cl (stereo not drawn) | -2.69 |
| C=CCn1c(NCc2ccc(OC)cc2)nc2ccccc21 | -17.2 |
| COc1ccc(-n2c(SCC#N)nnc2-c2ccc(NS(=O)(=O)c3ccc(C)cc3)cc2)cc1 | -30.2 |
| Cc1nn(-c2ccc(C(=O)NCC(c3ccco3)N3CCCC3)cc2)c(C)c1Cl (stereo not drawn) | -45.7 |
| COc1ccc(Cn2c(=O)cc(C)[nH]c2=S)cc1 | 4.74 |
| CC(=NCc1ccc2c(c1)OCO2)c1c(O)[nH]c(=O)[nH]c1=O | -4.41 |
| Cc1ccc(CC(=O)Nc2cc(C)on2)cc1 | -3.24 |
| CCOc1ccc(-n2c(O)c(C=Nc3ccc(N4CCOCC4)cc3)c(=O)[nH]c2=O)cc1 | -16.2 |
| COCCCNC(=S)N1CCC(C(=O)c2ccc(Cl)cc2)CC1 | -6.91 |
| CCOC(=O)N1CCC(NC(=O)C2CCN(C(=O)c3cc4oc(C)cc4n3Cc3c(F)cccc3Cl)CC2)CC1 | -20.3 |
| COCCCNS(=O)(=O)c1ccc2c3c(cccc13)C(=O)S2 | -45.8 |
| CN1C(=O)[C@H]2[C@@H](c3ccc(F)cc3)N3C(=O)c4ccccc4NC(=O)[C@@]3(C)[C@H]2C1=O | -39.1 |

| Structure (SMILES) | hERG current change (%, negative = inhibition) at 10uM [%] |
| --- | --- |
| Cc1ccc(SCC(=O)Nc2ccccc2C(=O)N2CCOCC2)cc1 | -10.9 |
| O=C(Nc1cccc(Cl)c1)c1ccc(F)c(S(=O)(=O)N2CCN(c3ccccn3)CC2)c1 | -11.2 |
| Cc1sc2nc(SCC(=O)NCCCO)n(-c3ccccc3)c(=O)c2c1C | 12 |
| CC(NC(=O)CN(C)S(=O)(=O)c1ccc2c(c1)c(=O)n(C)c(=O)n2C)c1ccccc1 (stereo not drawn) | -0.312 |
| COc1ccccc1NC(=O)CSc1nnc(C)n1CCc1ccccc1 | -14.3 |
| Cc1ccccc1N(CC(=O)NC(C)(C)C)C(=O)CS(=O)CC(=O)Nc1ccc2c(c1)OCO2 (stereo not drawn) | 6.63 |
| CCOC(=O)Nc1cccnc1Sc1ccc(Cl)cc1 | -32 |
| O=[N+]([O-])c1cnn(-c2nc(-c3cccs3)cc(C(F)(F)F)n2)c1 | -22.5 |
| Cc1c(NC(=O)c2cccc(NC(=O)c3ccco3)c2)cccc1C(=O)O | 7.41 |
| O=C(CCN1C(=O)/C(=C/c2ccccc2)SC1=S)Nc1ccccn1 | 12.9 |
| Cc1ccc(N2CC(C(=O)NCc3cccnc3)CC2=O)cc1 (stereo not drawn) | -11.9 |
| Cc1cccc(C(=O)NNC(=S)NC(=O)c2cccs2)c1 | 20.6 |
| Cc1cc(Oc2ccccc2)nc(N)n1 | -0.0794 |
| COc1cccc(C(CNC(=O)C2CCN(C(=O)Nc3ccccc3)CC2)N(C)C)c1 (stereo not drawn) | -6.05 |
| Cc1ccc(NC(=O)N2CCCc3ccccc32)cc1 | -6.25 |
| O=C1c2ccc([N+](=O)[O-])cc2S(=O)(=O)N1Cc1ccccc1 | 1.3 |
| Cc1ccc(Sc2nc([N+](=O)[O-])nn2C)cc1 | 0.903 |
| COc1ccc(Nc2nc(C(=O)N3CCc4cc(OC)c(OC)cc4C3)cs2)cc1 | -13.7 |
| CC(C)=Cc1c(O)nc2ccccn2c1=O | 26.6 |
| CCN1C(N(C)C)=NC[C@@H]1Cc1ccccc1 | -1.57 |
| NS(=O)(=O)c1cccc(NS(=O)(=O)c2ccc(/C=C/C(=O)OCC(=O)c3ccc(Br)cc3)cc2)c1 | 16.9 |
